The results in this text go back to publication PMC10726135.

The list shows a part of the results. At the low end of the ranking, values are background and their order means little. The protein was read in a cell extract, so binding may be indirect.

The target of the experiment is T1, HNF4alpha8 (COS-7 nuclear extract) (UniProt P41235-5).
T1 sequence: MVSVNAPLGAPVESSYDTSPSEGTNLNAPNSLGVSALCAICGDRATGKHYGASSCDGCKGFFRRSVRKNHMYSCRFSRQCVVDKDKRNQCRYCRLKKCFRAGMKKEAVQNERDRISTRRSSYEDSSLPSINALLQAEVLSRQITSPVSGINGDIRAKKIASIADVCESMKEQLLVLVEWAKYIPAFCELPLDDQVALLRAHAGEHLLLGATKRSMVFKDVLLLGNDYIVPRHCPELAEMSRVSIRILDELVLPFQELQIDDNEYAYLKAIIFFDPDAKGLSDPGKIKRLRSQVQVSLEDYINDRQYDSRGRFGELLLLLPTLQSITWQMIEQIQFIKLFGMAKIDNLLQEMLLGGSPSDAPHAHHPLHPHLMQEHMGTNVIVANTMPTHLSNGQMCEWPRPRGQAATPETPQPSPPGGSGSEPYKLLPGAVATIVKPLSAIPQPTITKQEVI
Description: protein-binding microarray. To be noted: COS-7 nuclear extract on double-stranded Agilent 4x180k PBM; binding buffer, salt, pH and temperature not given; high values mean tight binding; double strand, one strand shown; sequences stand for … in …GCCTAGGGAGATTAGAGTATCGGTCGA
TCCAAAGGTAATGGTCTCTCCCAGCGGGTC: the binding signal (log2 normalized intensity) was found to be 0.65.

TCATTCCTCAAATGCTCCTTTGAACAACTC: the binding signal (log2 normalized intensity) is 1.05.

As to CTTCAAACCTGGGAAAACTTACGCACATTA, the binding signal (log2 normalized intensity) was -1.28.

Regarding GTTAGTGCCCTCTGGTGGCACACAGAGGAC, the binding signal (log2 normalized intensity) was found to be 0.687.

With TTGAATTCCTTCTTCTTCTGGGGACTTCGG, the binding signal (log2 normalized intensity) amounted to 2.16.

For TGGACTTTTATGTTAAGATCAAACAGGGAC, the binding signal (log2 normalized intensity) is 1.2.

For TGAAACATATCCAGAATGTGTTTGCTTTTT, the binding signal (log2 normalized intensity) amounted to 1.

As to GGAGCATCTATTTTCTATTTCCACTGAGGT, the binding signal (log2 normalized intensity) turned out to be 0.149.

On to TAAAGTGACTAGAGAGCAGGAGCCACCTGT, for which the binding signal (log2 normalized intensity) is -1.31.

Regarding CCTCCTAAGTAGCCAAGATTACAGCCACAT, the binding signal (log2 normalized intensity) is -1.21.

Regarding ATTCCAAAAAGCTTTTGTCATGACCTTCGC, the binding signal (log2 normalized intensity) was determined as 5.07.

For CCAGCCAGTAGGAGTTGGAACGGGGGCAAG, the binding signal (log2 normalized intensity) stood at 0.853.

In the case of TCTGATGGCGTATGCAGCAGGGCAGCAGCC, the binding signal (log2 normalized intensity) is -0.926.

For the sequence GTAGAGAGCAGTCCTGCACATGAATGATCA, the binding signal (log2 normalized intensity) was -0.324.

Turning to TTTTGTAGATGCCTGCTTTCCACTCCCATT, the binding signal (log2 normalized intensity) came out at 1.49.

For the sequence GGAGGTCTGGAATGTGGAGAATGGCAAGAG, the binding signal (log2 normalized intensity) is -1.27.

As for AACTTCTTATCACTTGGTGGACATGGTTCA, the binding signal (log2 normalized intensity) was determined as 2.38.

As for CGTCAAGGTGAAAAGCCTTTTGAAGAAACC, the binding signal (log2 normalized intensity) was -1.18.

For AGATGGCATCACTCTTGCCACAGAACAGGC, the binding signal (log2 normalized intensity) was -1.29.

In the case of CCACAGGTATTCTTTCATCCCTCTCCCGCC, the binding signal (log2 normalized intensity) is 2.4.

Take TTGTGCAAGAATGCGTCATCCGCATCTGAA: the binding signal (log2 normalized intensity) is -1.37.

Regarding CGCTGACTCCGGGGAGCAGGCAGAGGAACA, the binding signal (log2 normalized intensity) was -1.26.

In the case of GGACAGCAGAGTGGAGGCCAGCGCCAGGCT, the binding signal (log2 normalized intensity) was -1.39.

As for AGCCTTGAATTGGCATGAGATCCACCTAAG, the binding signal (log2 normalized intensity) was -1.24.

Regarding GGCATATCTTTTTATCTCTGAATCCTCAAC, the binding signal (log2 normalized intensity) was 1.04.

Regarding CGCTCCCCTCCCCCACCCGCGGTCCGTCCC, the binding signal (log2 normalized intensity) came out at 5.77.

Regarding AGGGAGGAGGGATCAAGCAGGTGACCTTCG, the binding signal (log2 normalized intensity) was found to be 4.02.

In the case of TGCAGCCCACAGCCCGCTGTGCCTGTCACC, the binding signal (log2 normalized intensity) is -1.14.

Regarding CTAGCCCCGCCCAGATGTCTGGCTAAGACC, the binding signal (log2 normalized intensity) worked out at 3.43.

GAACTGGTCCGGCCCGACTCACGACCCCGC: the binding signal (log2 normalized intensity) is 2.48.

Consider GCTGATAATGGAATTGACATTCAATTGCAA, for which the binding signal (log2 normalized intensity) was -1.31.

As to ATTCCAGGAAGGTCTGATGGGCCAGGCAGG, the binding signal (log2 normalized intensity) is -1.43.

In the case of GTGGTGTCTTACCGGGATTTTGTTGGGGAA, the binding signal (log2 normalized intensity) came out at 1.26.

Regarding TTGAAATGTTATCATTAGGGAAAATAGTGA, the binding signal (log2 normalized intensity) amounted to 0.442.

On to GCCGGCTCTGAAGAGAACGGCTGATTCTGA, for which the binding signal (log2 normalized intensity) is -1.23.

Regarding CCTGGGTCAAATTGGTGCTTTCATCCCCTG, the binding signal (log2 normalized intensity) was determined as 1.76.

For AAAGTGACCCTCTGCCCCCTACACAGAGGA, the binding signal (log2 normalized intensity) was 4.75.

Regarding TCCTCCTTTTTTTTTTCAAGTGTTAGCTGT, the binding signal (log2 normalized intensity) is 1.78.

In the case of GTGACGGAGGTGACCTTTGGTTGTCCTTAC, the binding signal (log2 normalized intensity) is 4.94.

For the sequence AACACCAGCAACCGCCTACCTTTGGACTTC, the binding signal (log2 normalized intensity) stood at 6.25.

For the sequence ACGACTTGCTTATCTTACGCAACTGAAATT, the binding signal (log2 normalized intensity) is -1.3.

For GCACGAAAAACAGGTAGTTTGCAGTCTGAG, the binding signal (log2 normalized intensity) is -1.34.

As for GCTCAGTGCCTTCTCTAATGACTGATAATT, the binding signal (log2 normalized intensity) was 0.878.

With GGCATCATAAACTCCAACTCAGCCCCCAGC, the binding signal (log2 normalized intensity) came to 4.54.

With ACTGAGAAACCAAGATCCTAGTCTTTAGAG, the binding signal (log2 normalized intensity) was -1.35.

Regarding TATTGGGAGGCCCATTGTGCTGGGGGCAAG, the binding signal (log2 normalized intensity) stood at 1.93.

Take AGTAGGCACTATTATCCCCCTATCCCAAGA: the binding signal (log2 normalized intensity) came out at 4.72.

In the case of TGTTTAGCCCAATAAAATCTGGCAGCTTAA, the binding signal (log2 normalized intensity) was -1.28.

Turning to GCAAAGATCAGTGAGAAGAGAAACACATGC, the binding signal (log2 normalized intensity) was -1.38.

Turning to TCCTCTATCTTCAAAGCCAGCAACGGTGAG, the binding signal (log2 normalized intensity) came to 0.0395.

Take CAGTTGACCTTTGAACACCACAAGTTTGAA: the binding signal (log2 normalized intensity) turned out to be 6.74.

As to ATCTTCCAAATTCTCCCAGGCCATACAGAT, the binding signal (log2 normalized intensity) amounted to 0.992.

Turning to TTATTTAAGATTGAGAACTTTGACACCGAG, the binding signal (log2 normalized intensity) is 3.18.

With GGCCAGGAACGTCACACTGAAAGCTATCCC, the binding signal (log2 normalized intensity) is -1.38.

For GAAACTTATTGTGAACTGGAGCAAAGGTCA, the binding signal (log2 normalized intensity) stood at 5.97.

Regarding GGGTGTCAAAGCCCAACCAGGATAGGGAGG, the binding signal (log2 normalized intensity) is -1.28.

As for TGTACAGGACCATGTTCTCCTAAAGTGACT, the binding signal (log2 normalized intensity) is -1.19.

With CTGCTTATCTAGGATGAGAATCCACCTGCC, the binding signal (log2 normalized intensity) is -1.26.

For AAAATTCAACAAGACCCTGCCCTTTCCCCC, the binding signal (log2 normalized intensity) turned out to be 4.65.

With TAATTTAGATATCGCTCCAAGAGCCAACAG, the binding signal (log2 normalized intensity) is -1.35.

In the case of CTTTTATAAGGGGCAGCAAACCTACCTGAA, the binding signal (log2 normalized intensity) was -1.32.

As for GTAAACTCCCTTTGATGCGGTCAGAGTTCA, the binding signal (log2 normalized intensity) worked out at 3.65.

Take GTTATGGCACCAAGAAACCTTTCCCTCTCT: the binding signal (log2 normalized intensity) is -1.02.

On to TGAAACTATAAACTTGGTTACAGGACCAGG, for which the binding signal (log2 normalized intensity) was -1.26.

Turning to GATCAAAGGTCGGTTTTAGGACAACATGAG, the binding signal (log2 normalized intensity) was determined as 5.07.

CCTCAAAGTGGACTTTAGAACCCAAATAGA: the binding signal (log2 normalized intensity) is 6.63.

Turning to ATACAACCTCTGTAATAACTGCAGTGCCAC, the binding signal (log2 normalized intensity) was -0.214.

Take GACCTTTGCTCATGACTATTCTCTAAACTC: the binding signal (log2 normalized intensity) was 4.71.

On to AGTTTGGAGATGCCGTTAAGCAGATAAGGT, for which the binding signal (log2 normalized intensity) is 0.402.

As to AACAAAGGTCGGTGGTATGTGTGTGCTTTA, the binding signal (log2 normalized intensity) was found to be 2.2.

AAGGACCTCCTGAGATAGGTATGATAACCC: the binding signal (log2 normalized intensity) was determined as 0.362.

Take AGAAACTCAATCGCCTTTTATTTTTCCCCT: the binding signal (log2 normalized intensity) worked out at 1.77.

GAATTTGGTTACTCGCCTTAGAAATATTCA: the binding signal (log2 normalized intensity) is -1.41.

For AATTTATAGGCACTAGGTGTTCCTCAGCCT, the binding signal (log2 normalized intensity) is -1.33.

Take CATGGAGGATTTAGATAACATCTTTTCTCA: the binding signal (log2 normalized intensity) was -1.26.

With ACAACGAGGTGCCAGAAACCTGACTTCCAA, the binding signal (log2 normalized intensity) is -1.26.

Take AGACTCAACACCCAGGCTTATCTCACTCCA: the binding signal (log2 normalized intensity) is -1.47.

For the sequence TCACTATTGACATTTGGGGTCAGATAATTC, the binding signal (log2 normalized intensity) came out at 3.25.

Regarding AAAGACCCTAAACCTGTTGGGTCAGGCTGC, the binding signal (log2 normalized intensity) was -1.01.

For the sequence TCACTTTTTATCTGCCTTTTATCTATTTGT, the binding signal (log2 normalized intensity) came to 1.4.

Turning to GCCGATCACTGGCCCAGCTGGTTTGAAGAA, the binding signal (log2 normalized intensity) is -1.16.

For the sequence CCCCTTGAGACTTTAATCTCTCCTCTGACA, the binding signal (log2 normalized intensity) worked out at 0.306.

On to AAAGAGGGCCCCATCATGTGTACAGAGCTG, for which the binding signal (log2 normalized intensity) was -1.19.

On to GCAGGGGGCCAAGGGATACCCTGAGAGATC, for which the binding signal (log2 normalized intensity) is -1.24.

For TATGACCTTTGCTTTTCAAGATTTTACCTA, the binding signal (log2 normalized intensity) was 2.72.

On to AAGCCATAGTTAACCCAGAAGACTGTCAAC, for which the binding signal (log2 normalized intensity) was -1.24.

On to GGACAAGGGGGAGGAGAGTACTGTCTCTTA, for which the binding signal (log2 normalized intensity) was -1.13.

For AGCCACCAGTGCAAATATAAAAGGCTGTCA, the binding signal (log2 normalized intensity) was -1.25.

As for AACCTCCCTCCAAAATATCTCACTCCCACA, the binding signal (log2 normalized intensity) was 1.43.

As to TTTGCAGTAGGATAAGTCCTTCCAAAGTCC, the binding signal (log2 normalized intensity) came to 4.93.

GCTCAGGGAATGTGGGTCCACATTCCTGAT: the binding signal (log2 normalized intensity) stood at 1.97.

Turning to TTAGATATGGCTTATACTTGAGGTATGATG, the binding signal (log2 normalized intensity) worked out at 1.68.

In the case of AGTGGAATGTGCCCTTTGACCTCTCTCTCC, the binding signal (log2 normalized intensity) is 8.33.
